In the supplement of paper PMC3334620:
In all, about 33,000 sequences were measured (“E-score (-0.5 to 0.5)”: median about -0.017, highest 2% from about 0.3 on). The list shows a part of the results.

molecular target: T1, Sut1 (UniProt P53032); experiment: PBM E-score (8-mer binding enrichment) (E-score (-0.5 to 0.5)); higher = stronger / more preferred TF binding; most listed sequences are background and not binding sites; conditions: protein concentration: 200 nM; construct: GST-full length
T1 sequence: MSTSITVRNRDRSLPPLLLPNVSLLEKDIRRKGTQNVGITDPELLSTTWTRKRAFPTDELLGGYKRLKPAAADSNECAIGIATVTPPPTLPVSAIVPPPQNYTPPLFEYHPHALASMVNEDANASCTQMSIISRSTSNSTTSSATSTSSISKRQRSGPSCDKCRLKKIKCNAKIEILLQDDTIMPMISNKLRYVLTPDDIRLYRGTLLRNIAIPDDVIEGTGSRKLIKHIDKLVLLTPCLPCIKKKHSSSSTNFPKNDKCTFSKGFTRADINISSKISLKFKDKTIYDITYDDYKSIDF
How it was run: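 Full-length yeast transcription factors or their DNA-binding domains, GST-tagged and expressed with PURExpress, were applied at about 100-200 nM to universal all-10-mer Agilent arrays. These arrays had been made double-stranded by primer extension on fresh or once-stripped slides. Detection used fluorescent anti-GST, normalisation used masliner, and E-scores for ungapped eight-base words pooled with reverse complements came from the Universal PBM Analysis Suite.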

Sequence | PBM E-score
CGGATTGC | 0.068
AATAGCCG | 0.146
CATTGTTC | 0.0786
GCTATTGA | -0.0458
AAAGTGCC | -0.127
CACGGATA | 0.043
ACAGTGCA | 0.121
ACTTCATA | 0.101
CTGAGGTA | -0.0253
ACACATAT | 0.0563
CACTAAGG | -0.146
GCGTGATA | -0.0567
CAATGACC | -0.0978
GCGTGTTA | -0.0336
CCCTAACG | 0.0085
AAACCGAA | -0.00046
CCAAATTA | 0.211
CCACTTTA | 0.0316
CGAGTTTA | 0.0867
AACTTTGC | 0.124
GTTGCTTA | 0.111
AACATCCG | 0.147

Sequence | PBM E-score
ACCATCCG | -0.00169
ACTTTGCG | 0.0957
ATGAGCAG | -0.076
TCAGCTGA | 0.159
ATGCCGGG | -0.0609
CCTACACA | 0.00672
ACCCATCG | -0.096
AATTATAC | 0.308
AAAAGAGA | 0.104
CGGATGAG | 0.136
AGACAACG | 0.081
ACGGTAGA | -0.0884
CCGAGGAA | 0.163
ACGTGTCT | -0.19
CTAAGGCC | -0.21
CATGTAAG | 0.0151
GCCTCGCA | -0.181
AATCCACT | 0.0567
CACAAGTA | 0.00295
AGAAGCAA | 0.103
AGAGATCG | -0.0766
AACCGCTC | -0.096

Sequence | PBM E-score
AGGATTGG | -0.172
CCCAACCG | -0.216
ACAATACG | -0.0209
ACACACTG | -0.254
CGACTTCA | 0.136
ACTTTTGA | 0.18
ACCATCGC | -0.0993
GGAGAGTA | 0.0165
TCTTAGAA | 0.283
CACTTATA | 0.0975
CCAGAGTA | -0.122
CTGCCAGC | -0.162
ACTGCAAG | -0.0394
GCGTATAA | -0.00837
GTAGACAA | 0.157
CATATTCG | 0.0408
AGTTTGTC | 0.114
AAATCAAA | 0.239
TGAACCAA | 0.1
ACGGTATG | -0.0888
AGTTACCG | 0.169
ATCGCTAC | -0.0624

Sequence | PBM E-score
ACATCAAG | 0.0603
CTGATCCA | -0.111
ATCTATAG | 0.11
GAGTGCTA | 0.0199
CGCGCTCC | 0.0421
GCGGGTCC | -0.14
CGTCCTTA | -0.176
GCTATTCC | -0.0308
AACAAGCC | -0.112
AAAGAGCG | 0.153
GCCCCACA | -0.305
GAAGGAGC | -0.293
ACATCTGG | -0.0265
CCAGGGCG | -0.26
ATGCCTTG | -0.0663
GAATTGAC | 0.0462
CTCCACGA | -0.0324
AATATAGG | 0.179
CGTGGGAC | -0.0896
CTGGCTCA | -0.0837
